{"source": "patent US20180291103A1", "about": "(SUZHOU ALPHAMAB, published 2018)", "binders": {"B1": {"name": "hu56V1-Fc (PDL1 single domain antibody Fc fusion protein) (Fc fusion)", "chain": "QVQLVESGGGLVQPGGSLRLSCAASGKMSSRRCMAWFRQAPGKERERVAKLLTTSGSTYLADSVKGRFTISRDNSKNTVYLQMNSLRAEDTAVYYCAADSFEDPTCTLVTSSGAFQYWGQGTLVTVSS[sequence of human IgG1 Fc not given]", "notes": "VHH Hu56V1 fused to human IgG1-Fc; Biotinylated in the FcRn assay"}, "B2": {"name": "hu56V5-Fc (PDL1 single domain antibody Fc fusion protein) (Fc fusion)", "chain": "B1 chain with R87K", "notes": "VHH Hu56V5 fused to human IgG1-Fc; homodimer by the Fc"}, "B3": {"name": "hu56V2-Fc (PDL1 single domain antibody Fc fusion protein) (Fc fusion)", "chain": "B1 chain with K27F, M28T, S29F", "notes": "VHH Hu56V2 fused to human IgG1-Fc; homodimer by the Fc; Biotinylated in the FcRn assay; also called PDL1-hu56V2-Fc; KN035"}}, "note": "Substitutions are numbered along the chain they refer to."}
{"target": "T1, PDL1-Chis protein (Homo sapiens (Human), UniProt Q9NZQ7 in part)", "T1 construct": "Entry includes the C-terminal His tag; transiently expressed in HEK293", "T1 sequence (Q9NZQ7 other isoform, or with tags, fused parts or gaps limits assumed)": "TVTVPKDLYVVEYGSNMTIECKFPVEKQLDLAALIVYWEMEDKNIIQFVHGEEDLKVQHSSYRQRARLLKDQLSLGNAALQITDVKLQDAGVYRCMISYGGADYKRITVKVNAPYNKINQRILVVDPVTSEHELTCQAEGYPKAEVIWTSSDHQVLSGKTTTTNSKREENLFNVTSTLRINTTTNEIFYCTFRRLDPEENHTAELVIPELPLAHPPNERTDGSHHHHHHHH", "assay": "ELISA; PDL1-Chis coated at 0.5 µg/well, anti-human IgG-Fc HRP", "units": {"EC50": "µg/mL"}}
{"binder": "B1", "EC50": "~0.15"}
{"binder": "B2", "EC50": "~0.15"}
{"binder": "B3", "EC50": "~0.15"}
